These results are taken from a collection of fitness landscapes (doi:10.1016/j.celrep.2020.107928).

Sequences and labels used below:
B1: Caulobacter ParB omega fusion; a variant is named by its letters at X, in order, B8GW30 (parent)
chain: MESVVVGEPGMSEGRRGLGRGLSALLGEVDAAPAQAPGEQLGGSREAPIEILQRNPDQPRRTFREEDLEDLSNSIREKGVLQPILVRPSPDTAGEYQIVAGERAWRAAQRAGLKTVPIMVRELDDLAVLEIGIIENVQRADLNVLEEALSYKVLMEKFERTQENIAQTIGKSXSHVANXMRLLXLPDEVQSYLVSGELTAXHARAIAAAADPVALAKQIIEGGLSVRETEALARKAPNLSAGKSKGGRPPRVKDTDTQALESDLSSVLGLDVSIDHRGSTGTLTITYATLEQLDDLCNRLTRGI

Over roughly 81,000 sequences, “one-hybrid fitness for binding parS DNA” has its median near -0.17; the highest 2% begin near 0.51. Some of the results follow.

In this test the parent is B1. Description: one-hybrid fitness for binding parS DNA (scaled: cognate 1, non-cognate 0); higher = stronger binding. To be noted: with parS DNA site. In short, it runs like this:
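In E. coli USO, a HIS3 reporter with its site placed 19 bp from the promoter was used to select Caulobacter ParB variants randomised at four specificity codons. Growth lasted 48 hours at 37°C on histidine-free M9 containing 0.1 mM IPTG and 5 mM 3-AT. Fitness was taken as the log change in variant-to-wild-type read ratio from Illumina sequencing of pre- and post-selection plasmids, rescaled between the non-cognate and cognate sites.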
As for TNRH, the “one-hybrid fitness for binding parS DNA” value was no more than 0.2.
The figure for HVRV is no more than 0.2.
For the variant QHYL, the “one-hybrid fitness for binding parS DNA” value was no more than 0.2.
Next, TGNV: no more than 0.2; TWMD: no more than 0.2; CIMC: no more than 0.2.
The figure for ASFV is no more than 0.2.
The figure for KDQA is no more than 0.2; for PTAW it is no more than 0.2; for PVVM it is no more than 0.2.
Take MTEN: the “one-hybrid fitness for binding parS DNA” value was no more than 0.2.
Regarding TIQL, the “one-hybrid fitness for binding parS DNA” value is no more than 0.2.
Turning to QLRV, the “one-hybrid fitness for binding parS DNA” value is no more than 0.2.
Next, WLAV: no more than 0.2; EPAD: no more than 0.2.
The figure for SCLH is no more than 0.2.
Next, AGTQ: no more than 0.2; IEFV: no more than 0.2; PSPT: no more than 0.2.
Regarding REYN, the “one-hybrid fitness for binding parS DNA” value is no more than 0.2.
The figure for AAPF is no more than 0.2; for DMMR it is no more than 0.2.
Next, GRRG: no more than 0.2.
The figure for RIVM is 0.281; for GSDE it is no more than 0.2.
Take HQRW: the “one-hybrid fitness for binding parS DNA” value is no more than 0.2.
The figure for FYSS is no more than 0.2.
Next, RWTV: no more than 0.2; VYYR: no more than 0.2.
Next, WMAC: no more than 0.2; CYSI: no more than 0.2.
Take VIPE: the “one-hybrid fitness for binding parS DNA” value is no more than 0.2.
For LGTY, the “one-hybrid fitness for binding parS DNA” value is no more than 0.2.
Next, RQWA: 0.544.
The figure for TTVP is no more than 0.2.
The figure for HGME is no more than 0.2; for GGGK it is no more than 0.2; for TAYD it is no more than 0.2.
For MDQR, the “one-hybrid fitness for binding parS DNA” value is no more than 0.2.
Next, EHNF: no more than 0.2; VGQC: no more than 0.2.
Next, MGAC: no more than 0.2; QACM: no more than 0.2.
The figure for IAWL is no more than 0.2.
In the case of NMLR, the “one-hybrid fitness for binding parS DNA” value is no more than 0.2.
The figure for FGSC is no more than 0.2; for CINY it is no more than 0.2; for AMRY it is no more than 0.2.
The figure for PTLK is no more than 0.2; for LAPR it is no more than 0.2; for YLRV it is no more than 0.2.
Next, ILSG: no more than 0.2.
With QVYS, the “one-hybrid fitness for binding parS DNA” value is no more than 0.2.
The figure for EQNS is no more than 0.2; for AIAA it is no more than 0.2.
The figure for WLAA is no more than 0.2; for TMMN it is no more than 0.2.
On to WSRA, for which the “one-hybrid fitness for binding parS DNA” value is no more than 0.2.
The figure for HFPD is no more than 0.2; for PNQR it is no more than 0.2.
Next, IKPS: no more than 0.2.
With GYHK, the “one-hybrid fitness for binding parS DNA” value was no more than 0.2.
Consider ACSF, for which the “one-hybrid fitness for binding parS DNA” value is no more than 0.2.
For ALRK, the “one-hybrid fitness for binding parS DNA” value was no more than 0.2.
The figure for AMNM is no more than 0.2.
Next, VYVS: no more than 0.2; ACFS: no more than 0.2; EIDR: no more than 0.2.
Consider RWAY, for which the “one-hybrid fitness for binding parS DNA” value worked out at 0.278.
As for GFTN, the “one-hybrid fitness for binding parS DNA” value was no more than 0.2.
With ARAT, the “one-hybrid fitness for binding parS DNA” value was no more than 0.2.
Next, SQKW: no more than 0.2; CPCG: no more than 0.2.
The figure for ILSN is no more than 0.2.
The figure for CQQI is no more than 0.2; for RRPF it is no more than 0.2.
